Test [1] deals with RAW-Dual. Put plainly: NF-kB SEAP reporter activity, fold change vs agonist alone; higher = enhanced NF-kB activity. The method in brief: (§1)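 Supernatant from RAW-Dual macrophages was read after 20 hours for IRF by QuantiLuc luminescence and for NF-κB by QuantiBlue absorbance at 620 nm. The cells (50,000 cells/well in DMEM, 384-well plates, 37 °C, 5% CO2) had received 50 nL of library stock by pin tool and, 1 h later, a PRR agonist. Reporter activity is expressed relative to agonist-alone wells as fold change, and wells were flagged cytotoxic if IncuCyte confluency was under 70% of agonist controls in both mask sets.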

The subject of test [2] is RAW-Dual. Nature of the test: NF-kB SEAP reporter activity, fold change vs agonist alone; cytotoxicity flag (confluency mask): not cytotoxic; higher = enhanced NF-kB activity. The method in brief:
as §1

Test [3] deals with RAW-Dual. Put plainly: NF-kB SEAP reporter activity, fold change vs agonist alone; cytotoxicity flag (confluency mask): cytotoxic (confluency <70% of control); higher = enhanced NF-kB activity. The method in brief: as §1
[4] abbreviates: agonist: ODN 1826 (TLR9) 0.5 ug/mL.
[5] abbreviates: agonist: Pam2CSK4 (TLR2/6) 0.1 ug/mL.
Setting [6] is: agonist: Pam3CSK4 (TLR2/1) 0.1 ug/mL.
[7] abbreviates: library stock concentration (final ~1000-fold dilution): 10 mM, cytotoxicity flag (confluency mask): not cytotoxic, agonist: Imiquimod (TLR7) […].
Setting [8] is: library stock concentration (final ~1000-fold dilution): 10 mM, cytotoxicity flag (confluency mask): not cytotoxic, agonist: MPLA (TLR4) […].

Over roughly 2,900 compounds, “NF-kB SEAP reporter activity, fold change vs agonist alone” has its median near 0.99; the highest 2% begin near 2.6. This is one part of the list.

With `Cl.NCCCCC(N)C(=O)O` (stereo not drawn), the “NF-kB SEAP reporter activity” value in the test on RAW-Dual [1] (library stock concentration (final ~1000-fold dilution): 10 mM water, cytotoxicity flag (confluency mask): not cytotoxic, agonist: Imiquimod (TLR7) […]) stood at 0.925; with RAW-Dual [1] (library stock concentration (final ~1000-fold dilution): 10 mM water, cytotoxicity flag (confluency mask): not cytotoxic, agonist: MPLA (TLR4) […]), 1.06.
For `Cc1c(S(=O)(=O)O)oc2c1C(=O)C(=O)c1c-2ccc2c1CCCC2(C)C` (library stock concentration (final ~1000-fold dilution): 10 mM), the “NF-kB SEAP reporter activity” value came to 0.96 with RAW-Dual [2] (agonist: LPS (TLR4) 0.1 ug/mL), 0.907 with RAW-Dual [2] (setting [4]), 1.01 with RAW-Dual [2] (setting [5]) and 0.929 in the test with RAW-Dual [2] (setting [6]).
As to `Cc1c(S(=O)(=O)O)oc2c1C(=O)C(=O)c1c-2ccc2c1CCCC2(C)C`, the “NF-kB SEAP reporter activity” value in the test with RAW-Dual [1] (setting [7]) was determined as 0.804; in the test on RAW-Dual [1] (setting [8]) it was 0.875.
The like results for `O=C(O)/C(Cc1ccccc1[N+](=O)[O-])=N/Nc1nc(-c2ccc(Cl)c(Cl)c2)cs1` were, in that order, 0.981 and 1.11.
Turning to `O=C(O)/C(Cc1ccccc1[N+](=O)[O-])=N/Nc1nc(-c2ccc(Cl)c(Cl)c2)cs1` (library stock concentration (final ~1000-fold dilution): 10 mM), the “NF-kB SEAP reporter activity” value is 1.2 with RAW-Dual [2] (agonist: LPS (TLR4) 0.1 ug/mL), 0.919 with RAW-Dual [2] (setting [4]), 1.1 with RAW-Dual [2] (setting [5]) and 1.2 in the test with RAW-Dual [2] (setting [6]).
As for `COc1cc(/C=C/C(=O)O)cc(OC)c1O`, the “NF-kB SEAP reporter activity” value was found to be 0.781 in the test with RAW-Dual [1] (setting [7]) and 0.958 in the test with RAW-Dual [1] (setting [8]).
As for `COc1cc(/C=C/C(=O)O)cc(OC)c1O` (library stock concentration (final ~1000-fold dilution): 10 mM), the “NF-kB SEAP reporter activity” value in the test on RAW-Dual [2] (agonist: LPS (TLR4) 0.1 ug/mL) came to 1.1; in the test on RAW-Dual [2] (setting [4]), 0.868; with RAW-Dual [2] (setting [5]), 0.974; in the test on RAW-Dual [2] (setting [6]) it was 0.768.
With `CC#CCn1c(N2CCCC(N)C2)nc2c1c(=O)n(Cc1nc(C)c3ccccc3n1)c(=O)n2C` (stereo not drawn) (library stock concentration (final ~1000-fold dilution): 10 mM), the “NF-kB SEAP reporter activity” value with RAW-Dual [2] (agonist: LPS (TLR4) 0.1 ug/mL) came out at 1.31; in the test on RAW-Dual [2] (setting [4]) it was 0.823; in the test on RAW-Dual [2] (setting [5]), 1.05; in the test on RAW-Dual [2] (setting [6]), 1.17.
With `CC#CCn1c(N2CCCC(N)C2)nc2c1c(=O)n(Cc1nc(C)c3ccccc3n1)c(=O)n2C` (stereo not drawn), the “NF-kB SEAP reporter activity” value with RAW-Dual [1] (setting [7]) is 0.851; in the test with RAW-Dual [1] (setting [8]) it was 1.
For `CN1CCC(=C2c3ccccc3CCn3c(C=O)cnc32)CC1`, in the test on RAW-Dual [1] (setting [8]), the “NF-kB SEAP reporter activity” value is 0.936.
For `CN1CCC(=C2c3ccccc3CCn3c(C=O)cnc32)CC1` (library stock concentration (final ~1000-fold dilution): 10 mM), the “NF-kB SEAP reporter activity” value turned out to be 0.853 in the test with RAW-Dual [2] (agonist: LPS (TLR4) 0.1 ug/mL), 0.78 in the test with RAW-Dual [2] (setting [4]), 0.84 in the test on RAW-Dual [2] (setting [5]) and 0.965 in the test on RAW-Dual [2] (setting [6]).
The like results for `Cc1cc(F)c(C(=O)Nc2cccc(-c3nncn3C(C)C)n2)cc1-n1cnc(C2CC2)c1` (library stock concentration (final ~1000-fold dilution): 10 mM) were, in that order, 0.948, 0.467, 0.432 and 0.56.
As for `Cc1cc(F)c(C(=O)Nc2cccc(-c3nncn3C(C)C)n2)cc1-n1cnc(C2CC2)c1`, the “NF-kB SEAP reporter activity” value turned out to be 0.705 with RAW-Dual [1] (setting [7]) and 0.821 in the test on RAW-Dual [1] (setting [8]).
With `O=C(Nc1ccc(CN2CCOCC2)cc1)c1ccc(-c2cccc(Cl)c2)o1` (library stock concentration (final ~1000-fold dilution): 10 mM), the “NF-kB SEAP reporter activity” value in the test on RAW-Dual [2] (agonist: LPS (TLR4) 0.1 ug/mL) turned out to be 1.84; in the test with RAW-Dual [2] (setting [4]), 1.14; with RAW-Dual [2] (setting [5]), 0.967; in the test on RAW-Dual [2] (setting [6]) it was 1.21.
`O=C(Nc1ccc(CN2CCOCC2)cc1)c1ccc(-c2cccc(Cl)c2)o1`: the entries for the “NF-kB SEAP reporter activity” value with RAW-Dual [1] (setting [7]) and in the test on RAW-Dual [1] (setting [8]) were 1.04 and 1.09, respectively.
The like results for `CC(C)Oc1ccc(C(=O)NC(CNC(=O)CN(C)C)Cc2ccc(-c3cn4cccc(C(C)O)c4n3)cc2)cc1Cl` (stereo not drawn) were, in that order, 1.37 and 1.39.
Consider `CC(C)Oc1ccc(C(=O)NC(CNC(=O)CN(C)C)Cc2ccc(-c3cn4cccc(C(C)O)c4n3)cc2)cc1Cl` (stereo not drawn) (library stock concentration (final ~1000-fold dilution): 10 mM), for which the “NF-kB SEAP reporter activity” value with RAW-Dual [2] (agonist: LPS (TLR4) 0.1 ug/mL) came to 0.934; in the test on RAW-Dual [2] (setting [4]) it was 0.199; in the test with RAW-Dual [2] (setting [5]), 1.02; in the test with RAW-Dual [2] (setting [6]), 1.03.
For `N=C(CCl)NCCCC(NC(=O)c1ccccc1)C(N)=O.O=C(O)C(F)(F)F` (stereo not drawn), the “NF-kB SEAP reporter activity” value was found to be 0.949 with RAW-Dual [1] (setting [7]) and 0.915 in the test with RAW-Dual [1] (setting [8]).
Consider `N=C(CCl)NCCCC(NC(=O)c1ccccc1)C(N)=O.O=C(O)C(F)(F)F` (stereo not drawn) (library stock concentration (final ~1000-fold dilution): 10 mM), for which the “NF-kB SEAP reporter activity” value was determined as 1.4 in the test with RAW-Dual [2] (agonist: LPS (TLR4) 0.1 ug/mL), 0.884 in the test on RAW-Dual [2] (setting [4]), 0.846 with RAW-Dual [2] (setting [5]) and 0.987 in the test with RAW-Dual [2] (setting [6]).
The like results for `CN1C(=N)NC(C)(c2cc(NC(=O)c3ccc(F)cn3)ccc2F)CS1(=O)=O` (stereo not drawn) (library stock concentration (final ~1000-fold dilution): 10 mM) were, in that order, 0.906, 0.673, 0.747 and 0.657.
Consider `CN1C(=N)NC(C)(c2cc(NC(=O)c3ccc(F)cn3)ccc2F)CS1(=O)=O` (stereo not drawn), for which the “NF-kB SEAP reporter activity” value came out at 0.847 in the test on RAW-Dual [1] (setting [7]) and 0.931 in the test with RAW-Dual [1] (setting [8]).
In the case of `CC(C)(O)CC(=O)NCCn1ccc2ncnc(Nc3ccc(Oc4cccc(C(F)(F)F)c4)c(Cl)c3)c21` (library stock concentration (final ~1000-fold dilution): 10 mM), the “NF-kB SEAP reporter activity” value with RAW-Dual [3] (agonist: LPS (TLR4) 0.1 ug/mL) is 0.235; in the test with RAW-Dual [3] (setting [4]), 0.198; in the test on RAW-Dual [3] (setting [5]), 0.0882; in the test with RAW-Dual [3] (setting [6]), 0.151.
Take `CC(C)(O)CC(=O)NCCn1ccc2ncnc(Nc3ccc(Oc4cccc(C(F)(F)F)c4)c(Cl)c3)c21`: the “NF-kB SEAP reporter activity” value in the test with RAW-Dual [1] (library stock concentration (final ~1000-fold dilution): 10 mM, cytotoxicity flag (confluency mask): cytotoxic (confluency <70% of control), agonist: Imiquimod (TLR7) […]) is 0.295; in the test on RAW-Dual [1] (library stock concentration (final ~1000-fold dilution): 10 mM, cytotoxicity flag (confluency mask): cytotoxic (confluency <70% of control), agonist: MPLA (TLR4) […]), 0.201.
Regarding `CCC1(C)CC(=O)NC1=O` (stereo not drawn) (library stock concentration (final ~1000-fold dilution): 10 mM), the “NF-kB SEAP reporter activity” value with RAW-Dual [2] (agonist: LPS (TLR4) 0.1 ug/mL) is 1.25; with RAW-Dual [2] (setting [4]), 0.986; in the test on RAW-Dual [2] (setting [5]) it was 1.31; in the test on RAW-Dual [2] (setting [6]), 1.08.
As to `CCC1(C)CC(=O)NC1=O` (stereo not drawn), in the test with RAW-Dual [1] (setting [8]), the “NF-kB SEAP reporter activity” value stood at 0.978.
As to `Cc1c(C(=O)N2CCOc3ccc(-c4ccc(N)nc4)cc3C2)ccc(S(C)(=O)=O)c1F`, the “NF-kB SEAP reporter activity” value in the test on RAW-Dual [1] (library stock concentration (final ~1000-fold dilution): 2 mM, cytotoxicity flag (confluency mask): not cytotoxic, agonist: Imiquimod (TLR7) […]) was determined as 0.846; in the test with RAW-Dual [1] (library stock concentration (final ~1000-fold dilution): 2 mM, cytotoxicity flag (confluency mask): not cytotoxic, agonist: MPLA (TLR4) […]), 1.04.
On to `Cc1c(C(=O)N2CCOc3ccc(-c4ccc(N)nc4)cc3C2)ccc(S(C)(=O)=O)c1F` (library stock concentration (final ~1000-fold dilution): 2 mM), for which the “NF-kB SEAP reporter activity” value in the test on RAW-Dual [2] (agonist: LPS (TLR4) 0.1 ug/mL) was 1.07; in the test with RAW-Dual [2] (setting [4]), 1.03; in the test on RAW-Dual [2] (setting [5]), 1.05; with RAW-Dual [2] (setting [6]) it was 0.957.

Values taken from the supplement of paper PMC10037445.
